Measured values taken from PubChem BioAssay (Tox21).
The shares of active, inactive and inconclusive entries below differ from those in the screen. Entries that show only a call come without a potency. For some of these results: Where the call is inconclusive, the potency comes from a doubtful curve fit. The source made the active and inactive calls. Unless noted, calls come from the whole dose curve; as a rule, active = well fitted curve in the direction sought with a large enough effect in the repeat runs; inconclusive = weak or mixed curves; inactive = no such curve, though single readings can be large; an effect the other way counts as inactive or inconclusive.

What was measured:
[1] = qHTS RealTime-Glo MT Cell Viability Assay in HepG2 cells - 0 hour (AID 1224889); note: nearly all actives have a fitted effect of over 50% in size; note: potency is the fitted concentration of half-maximal effect
Outline: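 qHTS, HepG2, 600 cells/well, RealTime-Glo (NanoLuc + prosubstrate) added with cells; 5 h preincubation; DMSO compound addition; 37 C; luminescence at 0/8/16/24/32/40 h.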

[2] = qHTS assay to identify small molecule antagonists of the sonic hedgehog signaling (Shh) pathway (AID 1259369; calls by dose curve; note: nearly all actives have a fitted effect of over 45% in size; note: potency is the fitted concentration of half-maximal effect)
Outline: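 NIH/3T3-derived Gli1-Luc reporter cells plated 4 h, dosed with compound, then stimulated with conditioned medium for 24 h at 37 C. Firefly luciferase luminescence read after 30 min with detection reagent at room temperature.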

[3] = A CellTox Green Cytotoxicity Assay to monitor cytotoxicity in HepG2 cells - 8 hour (AID 1224890); note: nearly all actives have a fitted effect of over 45% in size; note: potency is the fitted concentration of half-maximal effect
Outline: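 HepG2 cells, 600/well, preincubated 5 h with CellTox Green dye, then exposed to Tox21 compounds in DMSO at 37 C for up to 40 h. Dead-cell DNA fluorescence read at the indicated time point.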

[4] = qHTS assay to identify small molecule agonists of the sonic hedgehog signaling (Shh) pathway - cell viability counter screen (AID 1259366); note: nearly all actives have a fitted effect of over 50% in size; note: potency is the fitted concentration of half-maximal effect
Outline: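 Fluorescence from CellTiter-Fluor reports live cells in this counter screen. NIH/3T3-derived Gli1-Luc reporter cells receive test compounds for 24hr at 37C; reagent goes in at 23hr.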

[5] = qHTS assay to identify small molecule antagonists of the androgen receptor (AR) signaling pathway using the MDA cell line in the presence of 0.5 nM R1881 - cell viability counter screen (AID 1259242); note: nearly all actives have a fitted effect of over 45% in size; note: potency is the fitted concentration of half-maximal effect
Outline: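 MDA-kb2 cells (MMTV-luciferase, AR/GR responsive) were treated with compounds plus 0.5 nM R1881 (final) for 16 hr at 37C, 0% CO2. Viability was then read in the same wells as live-cell protease fluorescence (CellTiter-Fluor, 30 min).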

[6] = qHTS assay to identify small molecule antagonists of the estrogen receptor alpha (ER-alpha) signaling pathway using the BG1 cell line in the presence of 0.1 nM 17-beta-estradiol - cell viability counter screen (AID 1259241); note: nearly all actives have a fitted effect of over 40% in size; note: potency is the fitted concentration of half-maximal effect
Outline: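 CellTiter-Fluor read (30 min, 37C) on ER-alpha/ERE-luc VM7Luc4E2 cells; 22 hr compound treatment; agonist 0.1 nM E2 final; same-well multiplex.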

[7] = qHTS assay to identify small molecule phospholipidosis (PLD) inducers (AID 1259344; active = well fitted curve in the direction sought with a large enough effect; inconclusive = small, poorly fitted or top-dose-only effect, or another doubt; inactive = no such curve, though single readings can be large; an effect the other way counts as inactive or inconclusive)
Outline: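 HepG2 cells grown on collagen I take up LipidTOX Red while exposed to compound for 24 h; after fixation they are imaged at 20x and pit metrics are extracted.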

[8] = target: Estrogen receptor (Homo sapiens) (UniProt P03372); assay: qHTS assay to identify small molecule antagonists of the estrogen receptor alpha (ER-alpha) signaling pathway using the BG1 cell line in the presence of 0.1 nM 17-beta-estradiol (AID 1259244); note: nearly all actives have a fitted effect of over 50% in size
Outline: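 VM7Luc4E2 cells (endogenous full-length ER-alpha, 4×ERE-luciferase), kept 5 days in phenol red-free, charcoal-stripped FBS medium; 4,000 cells/well. Compounds added with 0.1 nM (final) 17beta-estradiol, 22 hr at 37C; luminescence read with ONE-Glo after 30 min.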

[9] = qHTS assay to identify small molecule antagonists of the sonic hedgehog signaling (Shh) pathway - cell viability counter screen (AID 1259367); note: potency is the fitted concentration of half-maximal effect; nearly all actives have a fitted effect of over 55% in size
Outline: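 After a 4 hr settling period, 3T3 Gli1-Luc cells were treated with DMSO-dissolved chemicals and conditioned medium, kept 24 hr at 37C in 5% CO2, and assayed for viability by CellTiter-Fluor fluorescence following 1 hr reagent incubation.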

[10] = target: Estrogen receptor beta (Homo sapiens) (UniProt Q92731); assay: qHTS assay to identify small molecule agonists of the estrogen receptor beta (ER-beta) signaling pathway (AID 1259377; active = well fitted activation curve with a large enough effect in the signal ratio in the repeat runs, not every such curve was filed as active; inconclusive = weak or mixed curves, or effect the other way; the % refers to the signal ratio; note: potency is the fitted concentration of half-maximal effect); settings: ER-beta-UAS-bla HEK293T, beta-lactamase FRET ratio, 16 h; activation: at 92.4 µM (top of the series) unless noted
Outline: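 Screening used GripTite ER-beta-UAS-bla cells held in 2% charcoal-stripped FBS medium. After overnight (16 hr) compound incubation at 37C, beta-lactamase activity was detected with a FRET substrate by fluorescence.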
Tags give direction and shape of the fitted curve or compound fluorescence and quenching.

Sequence of UniProt Q92731 (Q92731 whole entry, looked up): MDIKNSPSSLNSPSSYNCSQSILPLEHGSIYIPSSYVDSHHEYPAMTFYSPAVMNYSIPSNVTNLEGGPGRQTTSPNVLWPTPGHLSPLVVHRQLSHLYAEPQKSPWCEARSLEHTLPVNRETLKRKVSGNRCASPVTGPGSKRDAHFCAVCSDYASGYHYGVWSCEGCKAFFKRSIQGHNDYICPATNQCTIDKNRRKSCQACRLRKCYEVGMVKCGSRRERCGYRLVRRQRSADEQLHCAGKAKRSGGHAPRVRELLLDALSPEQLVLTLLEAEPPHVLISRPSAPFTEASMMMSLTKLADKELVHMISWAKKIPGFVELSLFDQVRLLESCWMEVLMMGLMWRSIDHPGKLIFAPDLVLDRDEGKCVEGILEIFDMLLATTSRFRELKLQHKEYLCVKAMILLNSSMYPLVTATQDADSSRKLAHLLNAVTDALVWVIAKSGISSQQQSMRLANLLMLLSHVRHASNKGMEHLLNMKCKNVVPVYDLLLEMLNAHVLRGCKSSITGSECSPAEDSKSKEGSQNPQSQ
Sequence of UniProt P03372 (P03372 whole entry, looked up): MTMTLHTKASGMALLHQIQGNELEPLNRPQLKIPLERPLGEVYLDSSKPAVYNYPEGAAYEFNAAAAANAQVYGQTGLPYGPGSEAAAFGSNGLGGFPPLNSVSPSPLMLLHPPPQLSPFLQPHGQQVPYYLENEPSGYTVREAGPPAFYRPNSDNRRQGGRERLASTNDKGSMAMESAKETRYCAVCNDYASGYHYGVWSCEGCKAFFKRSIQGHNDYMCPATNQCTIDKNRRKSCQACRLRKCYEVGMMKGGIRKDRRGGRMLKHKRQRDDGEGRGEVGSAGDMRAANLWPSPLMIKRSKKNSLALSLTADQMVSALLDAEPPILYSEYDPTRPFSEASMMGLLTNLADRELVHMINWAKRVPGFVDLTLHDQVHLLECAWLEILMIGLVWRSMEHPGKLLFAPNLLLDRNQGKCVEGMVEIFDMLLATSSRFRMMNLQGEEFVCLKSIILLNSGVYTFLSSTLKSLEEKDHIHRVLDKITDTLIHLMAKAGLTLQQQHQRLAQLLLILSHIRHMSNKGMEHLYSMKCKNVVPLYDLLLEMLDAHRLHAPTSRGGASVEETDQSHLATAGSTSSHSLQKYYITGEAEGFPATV

Compound: CCC(C)(CCC(C)C)C(=O)[O][Sn]([CH3])([CH3])[O]C(=O)C(C)(CC)CCC(C)C (stereo unspecified)
- Potency [1]: inactive
- Potency [2]: inconclusive: 6.86 µM [inhibitor, single point]

Compound: C[C@@]12CCC[C@H]1[C@@H]1CC[C@H]3C[C@@H](O)CC[C@]3(C)[C@H]1CC2
- Potency [3]: inactive
- Potency [4]: inactive
- Potency [2]: active: 23.7 µM

Compound: O=C(O)COCC(=O)O
- Potency [5]: inactive

Compound: O=C(O)[C@H](O)[C@@H](O)[C@H](O[C@@H]1O[C@H](CO)[C@H](O)[C@H](O)[C@H]1O)[C@H](O)CO
- Potency [6]: inactive
- Potency [7]: inactive
- Potency [2]: inactive

Compound: CCc1cccc2c3c([nH]c12)C(CC)(CC(=O)O)OCC3 (stereo unspecified)
- Potency [5]: inactive

Compound: C[C@]1(Cn2ccnn2)[C@H](C(=O)O)N2C(=O)C[C@H]2S1(=O)=O
- Potency [5]: inactive

Compound: Nc1nc(Cl)nc2c1ncn2[C@H]1C[C@H](O)[C@@H](CO)O1
- Potency [3]: inactive
- Potency [2]: active: 0.383 µM

Compound: Cn1c(N)c(N=O)c(=O)n(C)c1=O
- Potency [1]: inactive
- Potency [2]: inactive

Compound: CC(C)(C)OC(=O)N1C[C@@H](F)C[C@H]1C(=O)O
- Potency [1]: inactive
- Potency [2]: inactive

Compound: COC(=O)c1ccccc1O
- Potency [3]: inconclusive: 1.38 µM [activator, partial curve]
- Potency [8]: inactive
- Potency [9]: inconclusive: 68.7 µM [cytotoxic, single point]
- Potency [2]: inconclusive: 7.71 µM [inhibitor, full curve, poor fit]
- Potency [10]: inconclusive: 68.7 µM [rising, partial curve, poor fit]

Compound: CN(C)/N=N/c1nc[nH]c1C(N)=O
- Potency [6]: inactive
- Potency [2]: inactive

Compound: O=C(O)CC(C(=O)O)S(=O)(=O)O (stereo unspecified)
- Potency [6]: inconclusive: 6.11 µM [cytotoxic, full curve]
- Potency [2]: active: 30.6 µM

Compound: CCCCCCCC
- Potency [3]: inactive
- Potency [8]: inactive
- Potency [2]: inactive

Compound: O=C(O)CCCc1ccccc1
- Potency [3]: inconclusive: 10.7 µM [activator, single point]
- Potency [2]: inactive

Compound: Cc1cc(CC(=O)O)n(C)c1C(=O)c1ccc(Cl)cc1
- Potency [6]: inactive
- Potency [2]: inactive

Compound: O=C(O)c1cc(Br)c(O)c(Br)c1
- Potency [5]: inactive

Compound: CC(=O)[C@H]1[C@H](C#N)C[C@H]2[C@@H]3CC=C4C[C@@H](O)CC[C@]4(C)[C@H]3CC[C@@]21C
- Potency [1]: inconclusive: 29.8 µM [cytotoxic, partial curve, poor fit]
- Potency [2]: inconclusive: 23.4 µM [inhibitor, partial curve]

Compound: O=C1C(=O)c2ccccc2C(O)=C1C1CCC(c2ccc(Cl)cc2)CC1 (stereo unspecified)
- Potency [1]: inconclusive: 10.7 µM [cytotoxic, partial curve]
- Potency [2]: inconclusive: 16.8 µM [inhibitor, single point]
- Potency [10]: inactive

Compound: CC(C)C[C@@H](N)C(=O)O
- cytotoxicity increase [3]: inactive: -17.7% [at 15.8 µM]

Compound: Cc1cc2c(cc1CC(=O)c1sccc1S(=O)(=O)Nc1onc(C)c1Cl)OCO2
- Potency [1]: inconclusive: 23.9 µM [cytotoxic, partial curve, poor fit]
- activation [10]: inconclusive: -4.03% [at 42.5 µM]

Compound: C=CC(=O)NC(C)C
- Potency [5]: inactive

Compound: COc1nc(C)nc(Cl)c1NC1=NCCN1
- Potency [3]: inactive

Compound: CCOc1ncc(F)c(=O)[nH]1
- Potency [3]: inactive
- Potency [8]: inactive
- Potency [10]: inactive

Compound: Cc1cccc(C(=O)O)c1O
- Potency [5]: inactive

Compound: Cc1cc([N+](=O)[O-])ccc1N
- Potency [6]: inconclusive: 53.8 µM [cytotoxic, partial curve]
- Potency [5]: inconclusive: 47.9 µM [cytotoxic]
- Potency [4]: inconclusive: 26.9 µM [cytotoxic, partial curve]
- Potency [9]: inconclusive: 33.9 µM [cytotoxic, partial curve]

Compound: CC(C)CC(=O)N[C@H](C(=O)N[C@H](C(=O)N[C@@H](CC(C)C)[C@@H](O)CC(=O)N[C@@H](C)C(=O)N[C@@H](CC(C)C)[C@@H](O)CC(=O)O)C(C)C)C(C)C
- Potency [3]: inconclusive: 1.69 µM [activator, partial curve, poor fit]

Compound: CC(CN(C)C)C(C)(O)Cc1ccc(Cl)cc1 (stereo unspecified)
- Potency [3]: inconclusive: 26.8 µM [activator, single point]
- Potency [2]: inconclusive: 1.19 µM [inhibitor, single point]

Compound: CC/C(C)=N\O[Si](C)(O/N=C(\C)CC)O/N=C(\C)CC
- Potency [5]: inactive

Compound: NCCNCCNCCNCCN
- Potency [6]: inactive

Compound: NCCCC[C@H](N[C@@H](CCc1ccccc1)C(=O)O)C(=O)N1CCC[C@H]1C(=O)O
- Potency [3]: inactive

Compound: OCCc1ccccc1
- Potency [3]: inconclusive: 10.7 µM [activator, single point]
- Potency [7]: inactive
- Potency [2]: inactive
